Results: publication PMC12136788
The other results are listed elsewhere or left out.

T1: UNK ZnF1-6 (called full-length) (human, UniProt Q9C0B0 30-357)
T1 sequence: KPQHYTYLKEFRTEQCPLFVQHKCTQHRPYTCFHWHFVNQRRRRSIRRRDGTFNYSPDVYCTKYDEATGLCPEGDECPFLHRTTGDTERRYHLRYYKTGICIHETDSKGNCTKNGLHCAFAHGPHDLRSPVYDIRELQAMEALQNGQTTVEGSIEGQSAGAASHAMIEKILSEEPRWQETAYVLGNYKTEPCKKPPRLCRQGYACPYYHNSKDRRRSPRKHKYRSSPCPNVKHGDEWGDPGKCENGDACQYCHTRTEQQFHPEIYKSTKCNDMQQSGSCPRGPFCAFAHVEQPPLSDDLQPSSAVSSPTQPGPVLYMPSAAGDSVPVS

B1: chr2:48720039:48721685:-|three_prime_utr|ENSG00000138039|control|control|control (ssRNA)
RNA: GGGAGUUCUACAGUCCGACGAUCGACUCUCUUUUAUAUCACUGGAUUCUAAAAAUUGGUAUCCUUGGUGCACUGCCUUUGUAUAGUACUUUUACUUUGUGUAGAUGUAAUUUUACAUGUAUAAUUGUCAUGUUACAAAGCUGUCAACAGAGGAUUGAGCAUCA
B2: chr12:30629720:30629821:-|3pUTR|ENSG00000133704|msi1|FALSE|bound_elsewhere (ssRNA)
RNA: GGGAGUUCUACAGUCCGACGAUCCUUCUUGCUUUCUCACCUAUUUGAAUUUUCUCCUACCUAAUUUGUUUGUGUCUUUAUUAUAGCUCAGUUUGACUUCUCAAACUUUUCAAGGGUUGGGGCAGCUGCACUUUUAGGUUGCCUCAACAGAGGAUUGAGCAUCA
B3: chr14:52327222:52327364:+|CDS|ENSG00000125384|unk|total|mutant (ssRNA)
RNA: GGGAGUUCUACAGUCCGACGAUCAUUUUUGCAUAUAUGAAUGAAACCUCUUCCCGAAAGGAAAAAUGGGACCUCCAAGCUCUCCGGUUUUUAUCAAUUAAUUCAAUAAUUGACCCUUGGGUCUUUGCCAUCCUCCGGCCUCCUCAACAGAGGAUUGAGCAUCA
B4: chr1:111117940:111118053:-|3pUTR|ENSG00000156171|unk|FALSE|unique (ssRNA)
RNA: GGGAGUUCUACAGUCCGACGAUCAGGCUGACAGUAACACUGAUGAAUGCUGAUAAUCAGGAAACAUGAAAGAAGCCAUUUGAUAGAUUAUUCUAAAGGAUAUCAUCAAGAAGACUAUUAAAAACACCUAUGCCUAUACUUUUUCAACAGAGGAUUGAGCAUCA
B5: ENSG00000198589:be:win_5801|CDS|ENSG00000198589|bound_else_gene|NA|bound_elsewhere_windowed (ssRNA)
RNA: GGGAGUUCUACAGUCCGACGAUCUGUGUGAUCAUUUGAUAAGAGCAGCAAAAUAUCGUGACCACGUGACAGCAACUCAACUAAUCCAGAAAAUUAUCAACAUUCUCACAGACAAGCAUGGAGCCUGGGGAAAUUCUGCAGUGACAACAGAGGAUUGAGCAUCA
B6: chr7:135928980:135929074:-|3pUTR|ENSG00000105887|msi1_unk|FALSE|overlapping (ssRNA)
RNA: GGGAGUUCUACAGUCCGACGAUCUAAAAAUAGAAUCAUAGCCAUAAGCCUGUUAGUAUCAUAUGAAGAGAGAACAGUUAUCUUAGUACCUAUGGAUUUUCUUUAUUUGCUGUUUGAAUGGAUUGACCUUGGUUAUGUGUUGAGCAACAGAGGAUUGAGCAUCA
B7: chr5:83942588:83942842:-|3pUTR|ENSG00000164176|msi1|total|mutant (ssRNA)
RNA: GGGAGUUCUACAGUCCGACGAUCUUUUCUAAUUGAAUUUCCUAUCCGUUGACUAAAAGAAGUGUCAUGUUUACUCAUAUAUGCCGAACAUGACUGCCUAUCAGCCGAUUGAUCUGUAUUUAAUAUUCGUUAAUUAAAUCUGCACAACAGAGGAUUGAGCAUCA
B8: chr5:103210461:103210562:+|3pUTR|ENSG00000145725|unk|total|mutant (ssRNA)
RNA: GGGAGUUCUACAGUCCGACGAUCGAAUAAGGAGCUGGGAGAAAGGAGACCUGGGUAUUAAUCUCAGCUCUACCACUACAUGGCCGAGCUAUGCCGUGGCCGACUAUCUGGGAGACUCCCGAAUCUUUACCAUUCCCUCUACUACAACAGAGGAUUGAGCAUCA
B9: ENSG00000039319:stop:overlap|stop_codon|ENSG00000039319|stop_codon|NA|stop_codon (ssRNA)
RNA: GGGAGUUCUACAGUCCGACGAUCCCAACUCUAGUUUACCAUUAGAAAUAGAAUUAGUGUUUUUCAUUAUAGAACAUCUUUUUUAGUGAAAGAAUGUGCCAUAUUACAUAUUGCAACCUAAUUUGUUAAAACUAACUCCAGCACCAACAGAGGAUUGAGCAUCA
B10: chr7:66987971:66988072:-|3pUTR|ENSG00000126524|unk|total|mutant (ssRNA)
RNA: GGGAGUUCUACAGUCCGACGAUCAAGUUACUUGAGGCAGCUCUUGUGGGUGAAAAGUUAUUUGUACAGCCGAGUAAGAUUAUCCGGGGUAUGUCUAUACAACAAAAGGGGGGGUCUUUCCUAAAAAAGAAAACAUAUGAUGCUCAACAGAGGAUUGAGCAUCA
B11: chr7:130166276:130166377:-|3pUTR|ENSG00000146842|msi1|total|mutant (ssRNA)
RNA: GGGAGUUCUACAGUCCGACGAUCUCUCUGAGCCACUGACUCUUCUGAAAUAAAAUACACAUGGGUGUAUGUUACAGACUCUUCCGAUUUAACAGAAAAUGCCGCUGUUAUGAAAUGUAAUUGUAAAAAUAUGUCCCGUAUCUUCAACAGAGGAUUGAGCAUCA
B12: chr15:97973610:97973711:+|3pUTR|ENSG00000140450|unk|total|mutant (ssRNA)
RNA: GGGAGUUCUACAGUCCGACGAUCGGUGCACAAAAUCCUUCUGUGGGCAAAACUUUGUUUUUGUUUUGCACAGUAAGAAACAACCGGCAAGCGUUAUGUUUUUGGUAAGUUAACUAUGAAAGCUUUCUUAUUUUUAUUAUUAAACAACAGAGGAUUGAGCAUCA
B13: ENSG00000107863:be:win_151|CDS|ENSG00000107863|bound_else_gene|NA|bound_elsewhere_windowed (ssRNA)
RNA: GGGAGUUCUACAGUCCGACGAUCGUUACGUUGAAAAGAACAUCUCAAGGCUUUGGUUUUACAUUAAGACAUUUUAUUGUUUAUCCCCCAGAGUCUGCAAUUCAAUUUUCAUAUAAGGAUGAAGAAAAUGGAAACAGAGGAGGACAACAGAGGAUUGAGCAUCA
B14: chr11:88113250:88114123:-|three_prime_utr|ENSG00000123892|control|control|control (ssRNA)
RNA: GGGAGUUCUACAGUCCGACGAUCUCGUGAAGCCCCAUCUCACAUCAACCAAGGUUGCCAGCUGCUCUGGCUGUGCCAAAUCCUAGUAGGCACCUUUGCUGGUGUCUGGUAGGAAUGACCUCAUUGUUCCACAAAUUGUGCCUCCAACAGAGGAUUGAGCAUCA

Molecular target: T1, UNK ZnF1-6 (called full-length)
Test: nsRBNS (natural sequence RNA bind-n-seq); RBNS binding buffer (assumed for nsRBNS): 25 mM Tris pH 7.5, 150 mM KCl, 3 mM MgCl2, 0.01% Triton X-100, 500 ug/ml BSA, 20 U/ml SUPERase-In, 4 C; UNK is unkempt and MSI1 is Musashi-1; names of the RNAs are library labels; protein concentration not given here; high values mean tight binding

Compared with B1, B2 is higher in binding signal: 0.34 enrichment R for the first, 1.18 enrichment R for the second.

First: B3
Second: B4
The binding signal of the first is higher: 0.652 enrichment R for the first, 0.438 enrichment R for the second.

Going from B5 to B6, the binding signal rises from 0.596 enrichment R to 0.98 enrichment R.

First: B7
Second: B8
The binding signal of the first is lower: 0.36 enrichment R for the first, 0.654 enrichment R for the second.

First: B9
Second: B10
The binding signal of the first is higher: 1.17 enrichment R for the first, 0.57 enrichment R for the second.

First: B11
Second: B12
The binding signal of the first is lower: 0.353 enrichment R for the first, 0.965 enrichment R for the second.

First: B13
Second: B14
The binding signal of the first is higher: 0.628 enrichment R for the first, 0.481 enrichment R for the second.
